Reference: the supplement of paper PMC3334620
The full ranking holds about 33,000 sequences; the median of “E-score (-0.5 to 0.5)” is about -0.011, and the highest 2% start at about 0.28. Some of the results follow.

target: T1, Gcr1 (UniProt P07261); assay: PBM E-score (8-mer binding enrichment) (E-score (-0.5 to 0.5)); higher = stronger / more preferred TF binding; most listed sequences are background and not binding sites; details: protein concentration: 100 nM; construct: GST-full length
T1 sequence: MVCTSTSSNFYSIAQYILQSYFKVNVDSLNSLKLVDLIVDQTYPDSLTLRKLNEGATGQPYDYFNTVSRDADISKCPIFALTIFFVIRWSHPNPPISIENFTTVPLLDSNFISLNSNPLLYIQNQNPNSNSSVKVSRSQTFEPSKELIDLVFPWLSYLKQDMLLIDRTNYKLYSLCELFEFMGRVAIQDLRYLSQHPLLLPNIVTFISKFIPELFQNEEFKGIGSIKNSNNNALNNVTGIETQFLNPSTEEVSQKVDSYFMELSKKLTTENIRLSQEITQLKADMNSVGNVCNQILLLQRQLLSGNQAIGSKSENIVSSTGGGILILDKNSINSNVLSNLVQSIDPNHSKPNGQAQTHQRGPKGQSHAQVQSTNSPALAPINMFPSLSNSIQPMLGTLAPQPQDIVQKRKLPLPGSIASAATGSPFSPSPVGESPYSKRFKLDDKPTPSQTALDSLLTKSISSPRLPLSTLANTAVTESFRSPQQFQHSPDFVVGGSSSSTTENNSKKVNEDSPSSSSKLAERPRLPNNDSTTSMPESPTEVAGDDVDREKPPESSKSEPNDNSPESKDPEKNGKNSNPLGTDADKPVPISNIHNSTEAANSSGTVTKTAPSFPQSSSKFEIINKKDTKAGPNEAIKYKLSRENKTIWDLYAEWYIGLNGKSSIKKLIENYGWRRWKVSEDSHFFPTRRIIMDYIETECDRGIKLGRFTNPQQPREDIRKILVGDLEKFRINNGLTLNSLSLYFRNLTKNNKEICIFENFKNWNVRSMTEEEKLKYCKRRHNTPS
Procedure, shortened: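 The E-score, a modified Wilcoxon-Mann-Whitney statistic, was computed by the Universal PBM Analysis Suite for every ungapped eight-base word pooled with its reverse complement. Scans behind it were normalised with masliner after bound GST-tagged yeast transcription factors were detected with fluorescent anti-GST. The proteins, at about 100-200 nM, had been applied to universal all-10-mer Agilent arrays made double-stranded by primer extension.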

Sequence | PBM E-score
ATAACTCA | -0.2
ACGCATCG | -0.00937
ACCACATA | 0.0238
CATACGTA | -0.0213
GTGATCTA | 0.0117
GCTAGGTA | -0.195
CCGGACTA | -0.068
TCCCACGA | 0.244
AGATGAAT | -0.0956
TAAACGCA | 0.158
AGGGTAAG | -0.131
AACAAATA | 0.035
ATTACACG | 0.176
AAGTTGTG | -0.0538
CACACGAC | -0.00814
CGGCATAC | -0.113
AGGCTTAC | -0.17
AAAAACGT | -0.0702
CGGGGATC | 0.184
CTGTTCCC | -0.0872
AAAATTCT | 0.149
GAAATCAC | 0.0926

Sequence | PBM E-score
CAGCTCGA | 0.0937
AAGTTGTC | 0.05
AGTCGCCG | 0.21
CATACTAC | 0.0478
GGTAACAA | 0.135
GACGCGTA | -0.0089
GCTGATTA | -0.0688
AGAAACGG | 0.0603
AGTACACG | 0.00782
ACTCCTGA | -0.0261
AACCACGT | -0.0375
GATAGATC | -0.21
GAGAAAGC | -0.0829
CCAGTTGA | -0.0652
ACCCCGCT | 0.0471
CACTCGGA | 0.214
TACCTGCA | 0.194
ATTCCAAG | 0.196
GGATGCTA | 0.44
ATGTCCCA | 0.022
AGACACTA | -0.0252
ACCCAAAT | 0.233

Sequence | PBM E-score
GATAGGGA | 0.0349
CCGCTACC | 0.046
AATCATAA | -0.0486
TAAGTGCA | -0.198
ATGTGGTC | -0.0553
TGTAGAAA | 0.0905
CGGGTCGC | -0.144
TAGGTAAA | -0.105
TCTCATAA | 0.0432
CAATTTAG | 0.0566
AAGTCTAA | -0.0934
ACATCTCC | -0.0256
ATTCGCGG | 0.193
CCTTCGCC | -0.218
ATGCTCAC | -0.0396
CCGGATTC | 0.313
CTCCTACA | -0.0367
CCCCTCAG | -0.0761
AACCTGGA | 0.0248
CATACAAC | 0.0943
TGCTACAA | 0.124
AGCTTCCC | 0.378

Sequence | PBM E-score
AACCACTT | 0.213
CGGTATAG | 0.0846
CATCCTTC | -0.108
TACGCCCA | -0.0827
AAACGGTG | 0.104
AAACAATT | -0.102
CTTAATGC | -0.161
CTAATTAA | 0.0618
GGACGGCC | -0.0796
CACCGGAG | 0.00487
AGGGGAGC | 0.105
ACAAACCC | -0.0318
AACAATAT | -0.00193
GCCATCCC | -0.173
CGTGCTTA | -0.0626
ACTATTCT | -0.205
ACAGACAC | -0.143
GCTCATCA | 0.0219
CCTACATC | -0.135
ACACCGAT | -0.0667
